PMC4336329 (PLoS ONE, 2015)
In all, about 310,000 compounds went through this assay and about 2,200 (0.71%) showed an effect of 50% or more. The effect is printed as a negative number. Some of the results follow.

target: human ether-à-go-go-related gene (hERG) potassium channel (human, UniProt Q12809); test: primary screen, population patch clamp on CHO cells stably expressing hERG
Sequence (Q12809 whole entry, looked up): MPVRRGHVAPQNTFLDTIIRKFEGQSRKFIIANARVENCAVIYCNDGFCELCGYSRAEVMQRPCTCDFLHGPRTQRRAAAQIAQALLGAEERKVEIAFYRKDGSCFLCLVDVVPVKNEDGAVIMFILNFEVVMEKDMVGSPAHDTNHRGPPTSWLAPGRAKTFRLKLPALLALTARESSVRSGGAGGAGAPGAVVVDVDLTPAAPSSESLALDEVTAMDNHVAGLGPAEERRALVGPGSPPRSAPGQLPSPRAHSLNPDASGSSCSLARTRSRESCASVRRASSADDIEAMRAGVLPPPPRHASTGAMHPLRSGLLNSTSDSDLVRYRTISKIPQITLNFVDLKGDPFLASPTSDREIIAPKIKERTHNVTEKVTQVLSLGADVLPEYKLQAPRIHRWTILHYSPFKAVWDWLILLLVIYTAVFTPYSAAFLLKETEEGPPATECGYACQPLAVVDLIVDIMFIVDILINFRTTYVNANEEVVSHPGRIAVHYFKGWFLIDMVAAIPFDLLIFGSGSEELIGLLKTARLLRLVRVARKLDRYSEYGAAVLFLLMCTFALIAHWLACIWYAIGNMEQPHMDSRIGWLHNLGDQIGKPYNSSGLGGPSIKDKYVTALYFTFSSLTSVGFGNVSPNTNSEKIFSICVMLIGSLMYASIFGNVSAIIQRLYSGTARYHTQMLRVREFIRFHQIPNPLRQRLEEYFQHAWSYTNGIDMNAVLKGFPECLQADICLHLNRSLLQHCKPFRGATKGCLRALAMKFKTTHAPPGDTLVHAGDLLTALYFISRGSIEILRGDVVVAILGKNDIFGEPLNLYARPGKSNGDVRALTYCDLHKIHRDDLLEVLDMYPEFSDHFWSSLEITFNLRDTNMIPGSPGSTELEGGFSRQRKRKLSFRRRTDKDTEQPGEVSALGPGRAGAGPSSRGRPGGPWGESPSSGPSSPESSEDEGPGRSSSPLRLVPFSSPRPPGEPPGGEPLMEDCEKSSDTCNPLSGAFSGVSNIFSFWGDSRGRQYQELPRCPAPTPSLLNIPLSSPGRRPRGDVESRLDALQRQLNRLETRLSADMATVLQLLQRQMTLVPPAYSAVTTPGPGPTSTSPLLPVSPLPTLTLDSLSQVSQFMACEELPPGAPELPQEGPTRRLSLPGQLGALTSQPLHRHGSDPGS

| SMILES | hERG current change (%, negative = inhibition) at 1uM |
| --- | --- |
| CCOc1cccc(-c2nn(-c3ccccc3)cc2/C=C(/C#N)C(=O)NCCCn2ccnc2)c1 | -1.55% |
| Cc1cc(C(=O)NNC(=O)Nc2ccccc2)no1 | 4.25% |
| Cc1ccc(S(=O)(=O)N(C)c2cc(S(=O)(=O)Nc3ccncc3)c(C)cc2C)cc1 | 9.62% |
| O=C(N/N=C/c1cccnc1)c1[nH]ncc1Br | 16.1% |
| O=C(NC(=S)N1C[C@H]2C[C@H](C1)c1cccc(=O)n1C2)c1ccc(Cl)cc1 | -4.09% |
| CC(=O)Nc1ccc(S(=O)(=O)NCc2ccc(C(=O)NC(C)c3ccccc3)cc2)cc1 (stereo not drawn) | 2.63% |
| Cc1ccc2[nH]c(=O)c(CC=C(Cl)Cl)c(C)c2c1 | 7.82% |
| CCC1C(=O)NCCN1C(=O)c1cc(COc2cc(C)ccc2C)on1 (stereo not drawn) | 11.7% |
| CCOC(=O)CSc1nnc(-c2cccnc2)n1Cc1ccccc1 | 6.53% |
| CCOc1ccc(-c2[nH]ncc2-c2ccc(Cl)cc2)c(O)c1 | 12% |
| Cc1c(C(=O)NCc2cccnc2)oc2ccc(S(=O)(=O)N3CCC4(CC3)OCCO4)cc12 | 10.7% |
| CCOc1ccc(-c2nc(N)ncc2Oc2cccc(OC)c2)c(O)c1 | 8.08% |
| CCN(C(=O)N(CC)c1ccccc1)c1ccccc1 | 12.2% |
| CCOP(=O)(c1ccccc1)C(O)c1ccc(F)cc1 (stereo not drawn) | 6.73% |
| Cc1ccc(/C=C(\C#N)C(=O)Nc2cccc(C)n2)cc1 | 11.5% |
| COc1ccc(-c2cc(C(=O)NC(Cc3c[nH]c4ccccc34)C(=O)O)c(C)o2)cc1OC (stereo not drawn) | 18.2% |
| COCCN(CCOC)S(=O)(=O)c1ccc(/C(O)=C(\C#N)c2nc3ccccc3[nH]2)cc1 | 3.63% |
| O=C(CC1CCCCC1)OCn1nnc2ccccc2c1=O | -3.31% |
| Cc1cc(=O)[nH]c(/N=C(\N)Nc2cccc3ccccc23)n1 | 14% |
| CCSC1(SCC)N=C(N)C2(C#N)C(c3ccccc3)NC(C)=CC12C#N (stereo not drawn) | 17% |
| O=S(=O)(Nc1nc(CN2CCOCC2)nc2sc3c(c12)CCCC3)c1cc(F)ccc1F | 7.88% |
| C/C(=N\NC(=O)c1ccccc1Cl)c1c(O)n(C2CCCCC2)c(=O)[nH]c1=O | 17% |
| CCOC(=O)C1CCN(S(=O)(=O)c2ccc(OC)c(C(=O)N3CCCCC3)c2)CC1 | 14% |
| Cc1cccc(NC(=S)N(CCCN2CCOCC2)C(C)c2cc3ccccc3o2)c1 (stereo not drawn) | 2.31% |
